From PubChem BioAssay AID686978 (National Center for Advancing Translational Sciences (NCATS), 2013)
Hit rate of the full screen: of about 420,000 compounds, about 64,000 (15%) were called active. The inconclusive results got no clear call from the source; some entries with a clear call stand among them for comparison. The call rests on the fitted dose curve; in most records, active means well fitted inhibition curve with a large enough effect; inconclusive means small, poorly fitted or top-dose-only effect; inactive means flat fitted curve, though single readings scatter. No potency is given beside an inconclusive call; the fits are too rough.

assay: qHTS for Inhibitors of human tyrosyl-DNA phosphodiesterase 1 (TDP1): qHTS in cells in absence of CPT; conditions: DT40 Tdp1-/- hTDP1 cells, no CPT, ATP luminescence, 48 h; activity change, negative = growth inhibition: at 46.2 µM (top of the series) unless noted; further: nearly all actives have a fitted effect of over 55% in size
Procedure, shortened: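 Seeded 400 DT40-hTDP1 cells/well (vehicle DMSO, no 20 nM CPT); pinned compounds; ≥48 hr at 37 °C; CellTiter-Glo luminescence as viability measure.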
On the % scale 0 is the no-effect control and ±100 the full control effect; potency means the concentration at half of the fitted maximal effect; tags describe the fitted curve by direction and shape.

Row | Compound | Potency | activity change, negative = growth inhibition
1 | CN(Cc1ccccc1)C(=O)CN1C(=O)CSc2ccc(S(=O)(=O)N3CCOCC3)cc21 | inconclusive [inhibitor, single point] | –
2 | CN1CCN(c2ncnc3c2ncn3[C@H]2CN(Cc3ccc(Cl)cc3)C[C@@H](CO)O2)CC1 | inconclusive [inhibitor, single point] | –
3 | CC1(c2ccccc2)NC(=O)N(CC(=O)NCc2cccc(Cl)c2)C1=O (stereo not drawn) | inconclusive [inhibitor, single point] | –
4 | CCOC(=O)N1CCC(=NNC(=O)NC2CCCCC2)CC1 | – | inconclusive: -42.5% [inhibitor]
5 | C/C(=N\Nc1ccccn1)c1ccc(OC(F)F)cc1 | inconclusive [inhibitor, single point] | –
6 | COCCCN1C(=O)CC(C(=O)OC)=C1C | inactive | –
7 | CCc1ccc(-c2cn3c(n2)sc2cc(C(=O)NCCc4ccc(OC)cc4OC)ccc23)cc1 | active: 16.4 µM | –
8 | COc1ccccc1-c1nnc(NC(=O)OCC(C)C)s1 | inactive | –
9 | C/C(=N\NC(=O)Cn1c(C)nc2ccccc21)c1cccs1 | active: 20.6 µM | –
10 | COC(=O)c1ccc(C23CC4(C2)[C@H](CN(CC2CCCCC2)[C@@H]4c2ccccc2)C3c2ccc(Cl)nc2)cc1 (stereo partly drawn) | inconclusive [inhibitor, single point] | –
11 | Cc1ccc(NC(=O)CN(C)S(=O)(=O)c2ccc(Br)s2)cc1F | inconclusive [inhibitor, single point] | –
12 | O=C(c1noc2c1CCCCC2)N1CCN(c2ccc(Cl)cc2)CC1 | inconclusive [inhibitor, single point] | –
13 | CC(=O)Nc1cc(-c2ccccc2F)cn2c(-c3ccccc3)cnc12 | inconclusive [inhibitor, single point] | –
14 | O=C(c1ccco1)N1N=C(c2ccc(Cl)cc2)CC1c1ccco1 (stereo not drawn) | active: 9.2 µM | –
15 | Cc1ccc2c(c1)C(=O)C(=O)N2CC1COc2ccccc2O1 (stereo not drawn) | active: 2.31 µM | –
16 | CCN1C[C@@H]2[C@@H]3C(=O)N(Cc4ccccc4)C(=O)[C@@H]3[C@](C)(C1=O)N2C(=O)c1ccc(Cl)c(Cl)c1 | inconclusive [inhibitor, single point] | –
17 | CCOC(=O)CON1C(=O)C(C)(C)N(OCC(=O)OCC)C(=O)C1(C)C | inactive | –
18 | CCN1C(c2ccccc2)=C(c2ccccc2)S/C1=C\C=C1/SC(=S)N(C)C1=O | active: 9.2 µM | –
19 | Cc1cccc(C)c1-n1nnnc1C1c2ccccc2C(=O)N1CCOc1ccccc1 (stereo not drawn) | inconclusive [inhibitor, single point] | –
20 | O=c1[nH]c2ccc(S(=O)(=O)Nc3ccc(Cl)cc3)cc2[nH]1 | inconclusive [inhibitor, single point] | –
21 | COc1cc(C)ccc1S(=O)(=O)N1CCN(C23CC4CC(CC(C4)C2)C3)CC1 | active: 16.4 µM | –
22 | COCCSc1ccccc1C(=O)NCc1ccc(S(N)(=O)=O)cc1 | inactive | –
23 | COc1ccc(NC(=O)CSc2nc3c(sc4ccccc43)c(=O)n2CCCN2CCCC2)cc1 | inconclusive [inhibitor, single point] | –
24 | O=C(CCc1nc2ccccc2c(=O)[nH]1)Nc1nnc(SCc2ccc(F)cc2)s1 | inactive | –
25 | CCn1nc(C(=O)OC(C(=O)c2c[nH]c3ccccc23)c2ccccc2)c2ccccc2c1=O (stereo not drawn) | inactive | –

Row | Compound | Potency | activity change, negative = growth inhibition
26 | Cc1nn(S(=O)(=O)c2ccc(Cl)cc2)c(C)c1Sc1ccc([N+](=O)[O-])cc1 | active: 16.4 µM | –
27 | Oc1ccc(N=Cc2ccc(-c3cccs3)s2)cc1 | inconclusive [inhibitor, partial curve] | –
28 | C#CC(C)(C)NS(=O)(=O)c1cc(-c2nnc(Nc3ccc(C)cc3)c3ccccc23)ccc1C | inconclusive [inhibitor, single point] | –
29 | c1ccc(Cn2nnnc2C(c2ccccc2)N2CCN(Cc3ccncc3)CC2)cc1 (stereo not drawn) | inconclusive [inhibitor, single point] | –
30 | COc1ccc(P(=O)(COc2ccc([N+](=O)[O-])cc2)c2ccc(OC)cc2)cc1 | inconclusive [inhibitor, partial curve, poor fit] | –
31 | CCOc1ccc(NC(=O)C(CC(=O)O)Cc2ccc(C)cc2)cc1 (stereo not drawn) | inactive | –
32 | CCc1nc2ccccc2n(CCOCCn2c(=O)c(CC)nc3ccccc32)c1=O | inactive | –
33 | CCOC(=O)c1sc(NC(=O)CSc2n[nH]c(-c3ccncc3)n2)c(C#N)c1C | inconclusive [inhibitor, single point] | –
34 | CC(C)CN=C(NS(=O)(=O)c1ccccc1)C(Cl)(Cl)Cl | active: 5.8 µM | –
35 | O=S(=O)(c1ccccc1)[C@@]1(c2ccccc2)C[C@@H]2ON=C(c3cccc(-c4ccccc4)c3)[C@@H]2C1 | active: 13 µM | –
36 | C=CCOc1ccc(/C=N/Nc2ccccn2)cc1OC | active: 25.9 µM | –
37 | COc1ccc(CNC(=O)C(c2ccccc2F)N(C(=O)c2csnn2)C2CC2)cc1 (stereo not drawn) | inconclusive [inhibitor, partial curve, poor fit] | –
38 | CN1CCC[C@@H]1CCNC(=O)c1c(-c2ccc3c(c2)OCO3)noc1-c1ccsc1 | inactive | –
39 | CCCC(c1nnnn1C(C)(C)CC)N(CCCO)Cc1cc2cc(C)cc(C)c2[nH]c1=O (stereo not drawn) | inconclusive [inhibitor, partial curve, poor fit] | –
40 | Cc1c(C(=O)OCC(=O)NCc2ccco2)cccc1[N+](=O)[O-] | inactive | –
41 | CN(C)CCCn1c(SCCN2C(=O)c3ccccc3C2=O)nc2ccccc2c1=O | inactive | –
42 | Nc1cc(-c2ccc(Cl)cc2)nn1S(=O)(=O)c1cccc2nsnc12 | inconclusive [inhibitor, single point] | –
43 | CCCCCSc1nc2c(c(=O)[nH]c(=O)n2C)n1CCc1ccccc1 | inconclusive [inhibitor, single point] | –
44 | O=C(CNCCC1=CCCCC1)Nc1ccccc1N1CCCCC1 | inconclusive [inhibitor, single point] | –
45 | COc1ccc(-n2cc(CNCCc3cscn3)c(-c3ccccc3Cl)n2)cc1 | active: 11.6 µM | –
46 | COc1ccc(CNC(=O)C2CCN(c3cc(C(=O)Nc4cccc(OC)c4)ccn3)CC2)cc1 | inconclusive [inhibitor, partial curve] | –
47 | C[C@H](CO)N1C[C@H](C)[C@H](CN(C)C(=O)c2ccc(N3CCN(C)CC3)cc2)OCc2cnnn2CCCC1=O | – | inconclusive: -28.9% [inhibitor]
48 | CC1(CCc2ccccc2)NC(=O)N(CC(=O)O)C1=O (stereo not drawn) | inconclusive [inhibitor, single point] | –
49 | O=S1(=O)N[C@@H](Cc2ccccc2)COc2cccc(N3CCN(Cc4ccccc4F)CC3)c21 | active: 18.4 µM | –
50 | NS(=O)(=O)c1ccc(CCNC(=O)CCCCCn2c(=O)[nH]c3ccccc3c2=O)cc1 | inactive | –

Row | Compound | Potency | activity change, negative = growth inhibition
51 | COc1ccc(NC(=O)c2cn(CC(C)C)c(=O)c3cc(OC)c(OC)cc23)cc1Cl | active: 20.6 µM | –
52 | CCc1ccc(NC(=O)CSc2nc(=O)n3cc(C)ccc3n2)cc1 | inconclusive [inhibitor, single point] | –
53 | CSc1nc(C)cc(SCC(=O)Nc2ccc(Cl)cc2Cl)n1 | inconclusive [inhibitor, single point] | –
54 | CCC1CN(C(=O)Nc2ccc(C)cc2)c2cc(C)ccc2O1 (stereo not drawn) | active: 16.4 µM | –
55 | O=C(Nc1ccc(Cl)c(Cl)c1)c1ccc(Cl)c(Cl)c1 | active: 5.8 µM | –
56 | COc1ccc2oc(=O)c(C(=O)NCc3cccnc3)cc2c1 | inactive | –
57 | O=C(NCC1(c2ccccc2)CCCC1)c1ccccc1 | active: 11.6 µM | –
58 | COc1ccc(-c2nc(CS(=O)(=O)CC(=O)NCc3cccc(Br)c3)c(C)o2)cc1 | inconclusive [inhibitor, partial curve, poor fit] | –
59 | Cc1cccc(Nc2nc(N)c([N+](=O)[O-])c(N3CCOCC3)n2)c1 | inconclusive [inhibitor, single point] | –
60 | CN(CC(=O)Nc1ccc([N+](=O)[O-])cc1Br)Cc1c(F)cccc1Cl | inconclusive [inhibitor, single point] | –
61 | Cc1ccc(NC(=O)c2nn(C)c3c2CS(=O)(=O)c2ccccc2-3)c(Cl)c1 | inactive | –
62 | O=C(Cn1c(CCCO)nc2ccccc21)Nc1ccccc1-c1ccccc1 | inactive | –
63 | Cc1ccc(C(=O)OCC(=O)Nc2cccc(S(=O)(=O)N3CCCCC3)c2)s1 | inconclusive [inhibitor, single point] | –
64 | COc1cc(CNc2nc3ccccc3s2)cc(OC)c1OC | active: 23.1 µM | –
65 | O=C(O)C(Cc1ccc(Cl)cc1)NS(=O)(=O)c1ccc(Cl)cc1 (stereo not drawn) | inactive | –
66 | COc1ccc(/C=C(\C#N)C(=O)OCC(=O)NCc2ccccc2OC)cc1 | inactive | –
67 | Cc1ccc(NC(=S)Nc2cccc3cnccc23)c(C)c1 | inconclusive [inhibitor, single point] | –
68 | COc1ccccc1/C=C/C(=O)c1ccc(NC(C)=O)cc1 | active: 14.6 µM | –
69 | Cc1oc(S(=O)(=O)N2CCCCC2)cc1NC(=O)Nc1ccc(F)cc1 | inconclusive [inhibitor, single point] | –
70 | Cc1cccc(C)c1OCc1cc(C(=O)N2CCCC2c2nonc2C)no1 (stereo not drawn) | inconclusive [inhibitor, single point] | –
71 | Cc1nc(C2COc3ccccc3O2)sc1C(=O)O (stereo not drawn) | inactive | –
72 | COc1cccc(CNc2ccc3c(c2)CCC3)c1 | inactive | –
73 | COc1ccc(C(=O)c2sc(Nc3ccccc3F)nc2N)cc1 | active: 11.6 µM | –
